Data from PubChem BioAssay AID2202238 (Ras Initiative Chemistry Research Team, Frederick National …, 2025).
The list shows a part of the results. Shown are side measurements of this screen, not its main read-out; they come without a call.

Biological target: GTPase KRas (Homo sapiens) (UniProt P01116)
Assay: Fragment capture on engineered cysteines, share of protein labelled (AID 2202238)
Design: protein at 5 µM with 500 µM competing thiol for 1.5 h
Details: KRAS G12D cysteine mutants, disulfide tethering, MALDI-TOF labeling, stronger effect = higher value, fragment at 500 µM
[1] = measured here: G60C mutant labeling
[2] = measured here: G75C mutant labeling
[3] = measured here: H94C mutant labeling
[4] = measured here: I36C mutant labeling
[5] = measured here: L120C mutant labeling
[6] = measured here: M67C mutant labeling
[7] = measured here: M72C mutant labeling
[8] = measured here: N26C mutant labeling
[9] = measured here: N86C mutant labeling
[10] = measured here: P121C mutant labeling
[11] = measured here: S122C mutant labeling
[12] = measured here: S136C mutant labeling

Sequence of UniProt P01116 (P01116 whole entry, looked up, the tested form may be a part): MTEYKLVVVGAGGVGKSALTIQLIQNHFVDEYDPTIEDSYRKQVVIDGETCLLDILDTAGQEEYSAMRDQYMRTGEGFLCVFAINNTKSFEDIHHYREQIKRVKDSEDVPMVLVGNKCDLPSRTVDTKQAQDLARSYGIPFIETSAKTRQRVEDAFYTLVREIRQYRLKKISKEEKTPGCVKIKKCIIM

SMILES | percent labeling [1] | percent labeling [2] | percent labeling [3] | percent labeling [4] | percent labeling [5] | percent labeling [6] | percent labeling [7] | percent labeling [8] | percent labeling [9] | percent labeling [10] | percent labeling [11] | percent labeling [12]
O=C(CCn1nc(-c2cccs2)oc1=O)NCCS | 44% | 17% | 33.2% | 31.6% | 44.6% | 48.5% | 28.2% | 39.6% | 24.4% | 37.7% | 33.2% | 46.2%
Cn1cc(C2=CCCN(C(=O)CCS)C2)cn1 |  | 11.2% | 12.5% | 26.4% | 10.6% | 14.4% | 9.3% |  | 6.7% | 14.7% | 17.6% | 24.2%
O=C(CCS)Nc1nc(C2CC2)c(Cc2ccc(F)cc2)s1 |  | 11.2% | 13.9% | 9.1% | 9.7% | 13.4% | 15% |  | 7.3% | 7.8% | 3.3% | 14.2%
Cc1nc2ccccc2c(=O)n1-c1ccc(C(=O)NCCS)cc1 | 29% | 7.2% | 13.4% | 11.3% | 16.5% | 23.1% | 23% | 28.6% | 8.4% | 21% | 8% | 18.9%
O=C(Cc1cc2ccccc2c(=O)[nH]1)NCCS | 30.8% | 12.6% | 18.6% | 19.5% | 32.6% | 22.3% | 42.4% | 36.5% | 17.8% | 18.8% | 10.6% | 36.6%
CN1CCN(c2cccc(C(=O)NCCS)n2)CC1=O | 18.8% | 9.6% | 29.1% | 17.1% | 23.3% | 21.7% | 28.3% | 23.7% | 11.3% | 18.2% | 15.8% | 31.7%
Cn1nc(C(F)(F)F)c2cc(C(=O)NCCS)cnc21 | 31.1% | 13.7% | 19.6% | 18.3% | 19.3% | 22.3% | 36.1% | 37.4% | 16.5% | 15.7% | 13.1% | 35.5%
O=C(NCCS)C1COCCN1CC1CCC1 (stereo unspecified) | 36.7% | 17.2% | 37.4% | 23.2% | 48.8% | 35.6% | 23.8% | 37.1% | 26.7% | 32.8% | 28.1% | 48.8%
O=C(NCCS)c1cc(-c2ccc3ccccc3c2)n[nH]1 | 10.7% | 6.3% | 10.2% | 11.6% | 15.3% | 8.5% | 52.9% | 23.7% | 10.6% | 11% | 6.7% | 12.7%
Cc1ccc(C)c(CN(C(=O)CCS)c2ccc3c(c2)CCC(=O)N3)c1 |  | 23.1% | 30.9% | 16.2% | 13.3% | 25% | 36% |  | 22% | 11.2% | 14.7% | 37%
O=C(NCCS)c1cnn(-c2cccc(Cl)c2)n1 | 20.4% | 12.6% | 13.9% | 9.3% | 19.9% | 10.4% | 28.4% | 25% | 12.9% | 16.3% | 6.4% | 14.8%
